From PubChem BioAssay AID651820 (National Center for Advancing Translational Sciences (NCATS), 2012)
Hit rate of the full screen: of about 340,000 compounds, about 12,000 (3.5%) were called active. The inconclusive results got no clear call from the source; some entries with a clear call stand among them for comparison. Calls come from the whole dose curve; as a rule, active = well fitted inhibition curve with a large enough effect; inconclusive = small, poorly fitted or top-dose-only effect, or another doubt; inactive = no such curve, though single readings can be large or run the other way. No potency is given beside an inconclusive call; the fits are too rough.

Experiment: qHTS Assay for Inhibitors of Hepatitis C Virus (HCV)
Conditions: Huh7.5.1 HCVcc-Cre (HCVcc is cell-culture hepatitis C virus) infection, luciferase reporter, 44 h; activity change, negative = inhibition: at 41.8 µM (top of the series) unless noted
In short: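 Infectious HCVcc-Cre (~0.5 moi) was added to cells just after compound, with cells seeded 4 h earlier at 1,000 per well. Luciferase activity after 44 h culture reported infection; substrate was incubated 15 min at room temperature before reading.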
% is set by controls: 0 for no effect and ±100 for the full control effect; potency is the fitted concentration of half-maximal effect; tags give direction and shape of the fitted curve.

Row | Structure (SMILES) | Potency | activity change, negative = inhibition
1 | O=C(NCc1cccnc1)Nc1ccc(Cl)cc1 | inactive | 
2 | CSCC[C@H](NC(=O)COc1ccc(Cl)cc1Cl)c1nc2ccccc2[nH]1 | inconclusive [inhibitor, single point] | 
3 | O=C(c1ccc2c(c1)OCO2)C1CCCN(C(=O)C2CCOCC2)C1 (centres undefined) | inactive | 
4 | CCCOc1ccc(-c2nn(-c3ccccc3)cc2/C=C2\SC(N)=NC2=O)cc1C | inconclusive [inhibitor, single point] | 
5 | COc1cccc(-c2nc(-c3ccccc3)nc(N3CCN(C)CC3)c2C#N)c1 | inconclusive [inhibitor, single point] | 
6 | COC1=C(c2ccccc2)C(=O)c2ccccc2C1=O | inconclusive [inhibitor, single point] | 
7 | Cc1ccccc1N1CCN(C2CCCN(C(=O)c3cc(CC(C)C)nn3C)C2)CC1 (centres undefined) | inconclusive [inhibitor, partial curve] | 
8 | CCN1CCN(c2ccc(S(=O)(=O)N3CCCCC3)cc2NC(=O)Cc2c(F)cccc2Cl)CC1 | inconclusive [inhibitor, partial curve] | 
9 | OCC1(CCCc2ccccc2)CCN(C2CCC2)CC1 | inactive | 
10 | COc1ccc(CCN2C(=O)c3[nH]nc(-c4ccccc4O)c3C2c2cccc(Cl)c2)cc1 (centres undefined) | inconclusive [inhibitor, single point] | 
11 | COc1ccccc1S(=O)(=O)c1ccccc1[N+](=O)[O-] | inactive | 
12 | CC(C)(C)n1nnnc1CN1CCN(C(c2ccccc2)c2ccccc2)CC1 | inconclusive [inhibitor, partial curve] | 
13 | CCC(=N\NC(=O)COc1ccccc1OC)/C(CC)=N/NC(=O)COc1ccccc1OC | inconclusive [inhibitor, partial curve] | 
14 | CCOC(=O)c1cc(-c2ccccc2)sc1NC(=O)C(C)N1C(=O)NC(C)(c2ccc(Cl)cc2)C1=O (centres undefined) | inconclusive [inhibitor, single point] | 
15 | COc1cc(OC)cc(C(=O)Nc2cccc(NC(=O)c3cc(OC)cc(OC)c3)n2)c1 | inconclusive [inhibitor, partial curve] | 
16 | CCCC(=O)Oc1ccc(C2NC(=O)c3ccccc3O2)cc1 (centres undefined) | inactive | 
17 | Cc1cccc(NS(=O)(=O)c2c(C(=O)N3CCCC3)c(C)n(C)c2C)c1 | inactive | 
18 | COc1ccc(N2CCN(C(=S)Nc3ccccc3OC)CC2)cc1 | inactive | 
19 | Cc1ccc(OCCN2C(=O)c3ccccc3C2=O)c(C)c1 | inactive | 
20 | CCc1noc(C)c1C(=O)Nc1cc(Cl)ccc1N1CCOCC1 | inconclusive [inhibitor, single point] | 
21 | FC(F)(F)c1ccccc1C1C2=C(Nc3ncnn31)c1ccccc1CCC2 (centres undefined) | inconclusive [inhibitor, partial curve] | 
22 | COc1cc(-n2nnnc2SCC(=O)N2CCN(c3ccc(F)cc3)CC2)c(OC)cc1Cl | active: 11.2 µM | 
23 | Cc1ccc(NC(=O)CN2CCc3ccccc3C2)cc1S(=O)(=O)N(C)C | inconclusive [inhibitor, single point] | 

Row | Structure (SMILES) | Potency | activity change, negative = inhibition
24 | Cc1ccccc1N(C(=O)CNC(=O)c1ccco1)C(C(=O)NC1CCCC1)c1ccncc1 (centres undefined) | inactive | 
25 | O=C(CCCN1C(=O)/C(=C/c2ccccc2)SC1=S)Nc1cccc(O)c1 | inconclusive [inhibitor, single point] | 
26 | COCCNC(=O)c1ccc(Cn2c(=S)[nH]c3cc4c(cc3c2=O)OCO4)cc1 | inconclusive [inhibitor, full curve] | 
27 | C/C(=C\C(=O)c1cccnc1)Nc1ccc(C(=O)O)cc1 | inactive | 
28 | Nc1nonc1-n1nnc(C(=O)N/N=C/c2cccc(Cl)c2)c1-c1ccc2c(c1)OCO2 | inactive | 
29 | COc1ccc(NC(=O)CSc2nnc3n2CCCCC3)cc1 | inconclusive [inhibitor, single point] | 
30 | Cn1c(CCN2CCN(c3ccc(F)cc3)CC2)nc2cc(NC(=O)c3ccco3)ccc21 | inconclusive [inhibitor, single point] | 
31 | Cc1ccc(Cc2cncc(O)c2)cc1S(=O)(=O)O | inconclusive [inhibitor, single point] | 
32 | C#CCOCCOCCOCCNc1nc(N2CCN(C(=O)Cn3cc(CCCN=C(N)N)nn3)CC2)nc(N2CCN(C(=O)[C@H](CCCCN)n3cc(CCC(=O)O)nn3)CC2)n1 | inactive | 
33 | O=C(OCc1cccc(Cl)c1)c1cc([N+](=O)[O-])ccc1N1CCOCC1 | active: 10 µM | 
34 | Cc1ccc(/C=C/C(=O)OCC(=O)N(CC(C)C)c2c(N)n(Cc3ccccc3)c(=O)[nH]c2=O)o1 | inactive | 
35 | CCCc1cnc(NCCNCC(O)COc2ccc(Cl)c(Cl)c2)nc1 (centres undefined) |  | inconclusive: -62.7% [inhibitor]
36 | Cc1ccc(-c2csc(NC(=O)c3c(C)noc3C)n2)cc1C | inconclusive [inhibitor, partial curve] | 
37 | C#Cc1cccc(-n2nnc(C(=O)OC)c2-c2ccccc2)c1 | inactive | 
38 | CCCCCCCn1c2c(c(=N)c3ccccc31)CCC2 | active: 1.78 µM | 
39 | NC(=S)N/N=C\c1c2ccccc2cc2ccccc12 | active: 12.6 µM | 
40 | CCOC(=O)c1[nH]c2ccc(OC)cc2c1NC(=S)N1CCN(c2ccccc2OC)CC1 | inconclusive [inhibitor, full curve] | 
41 | CC(=O)c1oc2ccccc2c1NC(=O)CN1CCCCC1 | inconclusive [inhibitor, full curve] | 
42 | CCOc1ccc(S(=O)(=O)N2CCOCC2)cc1NC(=O)CN1C(=O)NC(C)(c2ccc(C)cc2)C1=O (centres undefined) | inconclusive [inhibitor, single point] | 
43 | Cc1noc(C)c1S(=O)(=O)N(CC(=O)NC1CCC(C)CC1)c1ccc(C(C)C)cc1 (centres undefined) | inactive | 
44 | COc1cc(OC)cc(C(=O)c2c(C)c(C#N)c3ccccn23)c1 | inconclusive [inhibitor, partial curve] | 
45 | COc1ccc(-n2c(O)c(C(C)=NCCc3c[nH]c4ccccc34)c(=O)[nH]c2=O)cc1 | inactive | 
46 | CCOc1ccc(C(C)=O)cc1CSc1nnnn1-c1ccc(O)cc1 | inconclusive [inhibitor, single point] | 

Row | Structure (SMILES) | Potency | activity change, negative = inhibition
47 | O=C(Nc1ccc(S(=O)(=O)NCc2ccccc2)cc1)c1ccc(Br)o1 | inconclusive [inhibitor, single point] | 
48 | Cc1nn(-c2ccccn2)c2c1C(c1ccccc1Cl)C1=C(N2)c2ccccc2C1=O (centres undefined) | inconclusive [inhibitor, full curve] | 
49 | O=C(OCC(=O)N1CCN(Cc2ccccc2)CC1)c1cc(Cl)ccc1[N+](=O)[O-] | inactive | 
50 | CC(Sc1nc(NCc2ccccc2)nc(N2CCOCC2)n1)C(=O)Nc1ccccc1 (centres undefined) | inconclusive [inhibitor, full curve] | 
51 | C/C=C/c1ccc(OCCCCN2C(=O)NC(C)(C)C2=O)c(OC)c1 | inconclusive [inhibitor, partial curve] | 
52 | O=c1c2c(ncn2C2CCCC2)n(Cc2ccccc2)c(=O)n1CCOc1ccc(Br)cc1 | inconclusive [inhibitor, single point] | 
53 | Cc1ccc(CNC(=O)c2cc(-c3ccccc3C)nn2CC2CC(c3cccnc3)=NO2)cc1 (centres undefined) | inconclusive [inhibitor, single point] | 
54 | CCOC(=O)N1CCC(N2CCCC(CO)(Cc3ccccc3C)C2)CC1 (centres undefined) | inactive | 
55 | Cc1ccc(C(=O)N2CCCC(N(C)Cc3ccccc3)C2)s1 (centres undefined) | inactive | 
56 | O=C(COc1ccccc1O)Nc1ccccc1Cl | inactive | 
57 | CCCn1c(=O)n(C)c(=O)c2c(SC(C)C(=O)NCC3CCCO3)nc(CC(C)C)nc21 (centres undefined) | inconclusive [inhibitor, single point] | 
58 | Oc1c(CN2CCc3ccccc3C2)cc(Cl)c2cccnc12 | inconclusive [inhibitor, single point] | 
59 | Cc1ccc(P(=O)(CSC(=N)N)c2ccc(C)cc2)cc1 | inconclusive [inhibitor, single point] | 
60 | COc1ccc(C)cc1N/C(N)=N/c1nc(C)cc(C)n1 | inconclusive [inhibitor, single point] | 
61 | CNCC[C@H](Oc1ccc(C(F)(F)F)cc1)c1ccccc1 | active: 3.98 µM | 
62 | NS(=O)(=O)c1cccc(NC(=O)c2ccc(S(=O)(=O)N3CCCCCC3)cc2)c1 | inconclusive [inhibitor, partial curve, poor fit] | 
63 | CN1C(=S)NC(C)(C)CC1(C)c1ccc(O)cc1O (centres undefined) | inactive | 
64 | O=C(N/N=C\c1ccc([N+](=O)[O-])s1)c1cncc(Br)c1 | active: 10 µM | 
65 | Cn1c(=O)c2c(nc(N/N=C/c3ccc(OC(=O)c4ccco4)cc3)n2Cc2ccccc2)n(C)c1=O | inconclusive [inhibitor, single point] | 
66 | COc1cccc(/C=N/NC(=O)c2nnn(-c3nonc3N)c2C(C)C)c1OCc1ccc(F)cc1 | inconclusive [inhibitor, partial curve] | 
67 | COc1ccc(S(=O)(=O)Nc2ccc3c(c2)C(=O)N([C@H](C)CO)C[C@H](C)[C@@H](CN(C)S(=O)(=O)c2ccc(F)cc2)O3)cc1 | inconclusive [inhibitor, partial curve, poor fit] | 
68 | COC(=O)[C@H](C)N(Cc1ccc(Cl)c(Cl)c1)S(=O)(=O)CCN1CCCC1 | inconclusive [inhibitor, single point] | 
69 | Cc1ccc(NC(=O)CN2C(=O)NC3(CCCCCC3)C2=O)cc1Cl | inconclusive [inhibitor, single point] | 
